# From the supplement of paper PMC7826260
# The list shows a part of the results. The data describe in vitro nicking of single-stranded DNA by Rep domains (1 h at 37 °C, 3 µM enzyme); the outer parts of the 90-letter strands are left off. Numbers give uncut DNA relative to the enzyme-free pool, as log2; strong cutting gives strongly negative numbers. There is no active / inactive call. Because reads are shares of a total, they shift together; uncut strands gain when others are lost, and binding without cutting may add a little.
# What was measured:
# Assay in all cases: uncleaved DNA left, log2 of reads against the no-enzyme library (log2 ratio); higher = less cleavage (more negative = more Rep cleavage of the k-mer); sequences stand for … in CTCGTCCG…ACCGGAGA
# [1] = test system: T1, Rep nickase domain of Muscovy duck circovirus
# T1 sequence (Rep 1-111, printed without the tag): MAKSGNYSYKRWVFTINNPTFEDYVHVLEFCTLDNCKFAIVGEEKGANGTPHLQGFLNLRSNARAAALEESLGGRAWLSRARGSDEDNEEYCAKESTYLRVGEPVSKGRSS
# Procedure: (§1)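 A pool of 90-nt single-stranded DNAs with seven random bases just before the constant AC of the nick site (name = the seven bases) was cut by 3 µM recombinant His6-SUMO-tagged Rep nickase domain (300 nM DNA, 50 mM HEPES pH 8.0, 50 mM NaCl, 1 mM MnCl2, 1 h, 37 °C, three replicates). Uncut DNA was amplified and sequenced.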
# [2] = test system: T2, Rep nickase domain of banana bunchy top virus
# T2 sequence (Rep 1-94, printed without the tag): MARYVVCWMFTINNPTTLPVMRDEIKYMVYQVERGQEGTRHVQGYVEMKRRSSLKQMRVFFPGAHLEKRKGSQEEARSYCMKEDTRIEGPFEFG
# Procedure: as §1
# [3] = test system: T3, Rep nickase domain of cabbage leaf curl virus
# T3 sequence (Rep 1-116, printed without the tag): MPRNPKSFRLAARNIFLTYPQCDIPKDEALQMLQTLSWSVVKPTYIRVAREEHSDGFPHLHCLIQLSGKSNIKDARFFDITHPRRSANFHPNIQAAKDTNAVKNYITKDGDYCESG
# Procedure: as §1
# [4] = test system: T4, Rep nickase domain of chickpea chlorotic dwarf virus
# T4 sequence (Rep 1-124, printed without the tag): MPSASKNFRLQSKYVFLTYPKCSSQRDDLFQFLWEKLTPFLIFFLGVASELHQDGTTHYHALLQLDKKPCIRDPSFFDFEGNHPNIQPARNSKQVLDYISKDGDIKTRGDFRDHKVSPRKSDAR
# Procedure: as §1
# [5] = test system: T5, Rep nickase domain of faba bean necrotic yellows virus
# T5 sequence (Rep 1-98, printed without the tag): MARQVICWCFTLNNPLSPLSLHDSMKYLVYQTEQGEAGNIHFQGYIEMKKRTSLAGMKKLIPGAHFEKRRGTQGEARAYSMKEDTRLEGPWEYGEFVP
# Procedure: as §1
# [6] = test system: T6, Rep nickase domain of maize striate mosaic virus
# T6 sequence (Rep 1-117, printed without the tag): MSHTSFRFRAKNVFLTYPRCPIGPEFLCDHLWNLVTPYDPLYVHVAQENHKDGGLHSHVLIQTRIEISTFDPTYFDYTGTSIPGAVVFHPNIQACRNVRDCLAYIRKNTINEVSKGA
# Procedure: as §1
# [7] = test system: T7, Rep nickase domain of porcine circovirus 2
# T7 sequence (Rep 2-116, printed without the tag): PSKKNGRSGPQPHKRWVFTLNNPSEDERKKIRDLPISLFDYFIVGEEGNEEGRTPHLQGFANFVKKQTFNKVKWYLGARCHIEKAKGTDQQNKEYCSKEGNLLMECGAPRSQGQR
# Procedure: as §1
# [8] = test system: T8, Rep nickase domain of tomato golden mosaic virus
# T8 sequence (Rep 1-124, printed without the tag): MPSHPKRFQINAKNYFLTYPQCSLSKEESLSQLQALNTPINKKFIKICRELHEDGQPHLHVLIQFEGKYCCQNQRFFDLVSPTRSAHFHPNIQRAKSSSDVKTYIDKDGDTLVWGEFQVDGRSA
# Procedure: as §1
# [9] = test system: T9, Rep nickase domain of tomato yellow leaf curl virus
# T9 sequence (Rep 1-136, printed without the tag): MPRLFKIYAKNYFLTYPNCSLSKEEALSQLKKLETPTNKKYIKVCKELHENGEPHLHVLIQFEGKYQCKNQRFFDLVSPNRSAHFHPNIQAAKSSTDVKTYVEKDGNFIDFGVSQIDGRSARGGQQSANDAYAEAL
# Procedure: as §1
# [10] = test system: T10, Rep nickase domain of wheat dwarf virus
# T10 sequence (Rep 1-137, printed without the tag): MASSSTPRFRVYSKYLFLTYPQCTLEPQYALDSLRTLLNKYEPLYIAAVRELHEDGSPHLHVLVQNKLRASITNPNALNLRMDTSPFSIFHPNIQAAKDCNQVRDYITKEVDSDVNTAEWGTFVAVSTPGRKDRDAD
# Procedure: as §1
Sequence,uncleaved DNA left (log2) [1],uncleaved DNA left (log2) [2],uncleaved DNA left (log2) [3],uncleaved DNA left (log2) [4],uncleaved DNA left (log2) [5],uncleaved DNA left (log2) [6],uncleaved DNA left (log2) [7],uncleaved DNA left (log2) [8],uncleaved DNA left (log2) [9],uncleaved DNA left (log2) [10]
TCTCATT,-0.302,-0.174,-0.392,-2.26,-0.000821,-0.871,-1.67,-0.517,0.0364,-0.0384
TCGGTAA,-0.108,-0.0728,0.00672,-0.0787,-0.24,-0.0114,-0.0677,-0.0479,-0.0791,-0.0463
GAAAATC,0.0409,-0.0146,0.157,0.351,-0.0105,0.636,0.0729,0.0431,0.0252,0.0578
CGTATAT,-0.0531,-0.0447,0.0268,-0.294,-0.124,-0.118,-0.772,-0.179,-0.0524,-0.0415
TCCGGCG,0.0933,0.0978,-0.529,0.744,0.123,-0.168,0.0883,0.105,0.0726,0.0319
TTTTAGT,-3.19,-0.185,-0.164,-1.05,-0.0432,-0.881,-3.41,-0.0668,0.0163,-0.104
ACTTGTC,0.00833,-0.0275,-0.595,-0.622,-0.119,-1.03,0.0212,-0.137,0.0398,-0.0862
CGGGGCC,-0.208,-0.15,0.535,1.18,-0.184,1.71,0.00139,-0.27,-0.23,-0.0782
ATCTTCG,-0.037,-0.0975,-0.933,-0.254,-0.111,-1.26,0.0141,-0.108,-0.0581,-0.123
GAGGAGT,-0.0494,-0.0654,0.439,1.29,-0.137,1.56,-0.14,-0.086,-0.0264,-0.0328
GGCCCCC,-0.0183,0.168,0.45,0.919,-0.138,1.54,0.0196,-0.0215,-0.0417,0.0856
TTTCAAC,0.087,0.0139,0.399,-0.955,0.0135,0.376,0.0684,0.112,0.116,0.0822
GTGCATA,0.0762,0.203,0.364,1.02,0.159,1.73,0.0126,0.123,0.169,0.188
CCATGGA,0.136,0.111,-0.199,-0.14,0.151,-0.825,0.12,0.0882,0.0891,0.119
TCAAAAT,0.276,0.113,0.092,-0.809,0.062,-0.423,-0.0352,0.0121,0.134,0.138
TCAGACA,0.0196,0.074,0.346,-0.668,-0.0367,0.461,0.0894,-0.108,-0.0331,0.0222
CCCTTCT,-1.29,-0.103,-0.193,-2.65,0.0217,-0.841,-2.53,-0.293,-0.0432,-0.0257
TAGACCT,0.0434,-0.368,-0.256,-1.09,-0.289,0.924,-3.43,-0.0332,0.109,0.0275
GGTGGAC,-0.0382,0.0111,0.859,1.95,-0.0318,2.26,0.269,0.0185,0.0518,0.0741
GCACTGG,-0.0215,0.033,-0.125,0.375,-0.171,-0.188,0.141,0.00382,-0.061,-0.0828
CTAGCAC,-0.0702,-0.0446,-0.275,-0.55,-0.136,-0.759,-0.0057,-0.0888,0.0418,-0.099
GACGGAT,-0.0476,-0.0928,0.184,1.35,-0.139,1.75,0.0123,0.115,-0.129,0.0152
GCGGTTC,-0.013,-0.0432,0.479,1.11,-0.0984,1.65,0.159,0.0748,0.123,0.124
TAAAAAA,-0.0304,0.00586,-0.957,-2.23,-0.0122,-0.603,0.0886,0.0237,-0.101,-0.234
AAACGCC,-0.0703,0.0382,-0.251,-0.806,0.0156,-0.766,-0.0379,-0.0383,-0.0876,-0.104
TACCAAT,0.00755,0.0694,-0.233,-2.55,-0.0534,-0.535,-2.28,-0.146,0.0337,0.0844
ATGACGG,0.0675,0.0972,0.256,0.897,0.124,1.24,0.123,0.119,-0.0322,0.0773
ACCCTGT,0.0981,-0.0609,-0.266,-0.625,-0.00129,-0.638,-0.0647,0.185,-0.0312,-0.0401
TGTAACT,0.0883,0.161,0.162,-1.45,0.0628,1.06,-0.282,0.166,0.153,0.238
AGACCTG,-0.00574,0.0539,0.307,1.07,-0.0403,1.72,0.0581,-0.0597,0.0385,0.162
